# Assay results reported in ChEMBL document CHEMBL4888484, “Replenishing the malaria drug discovery pipeline: Screening and hit evaluation of the MMV Hit Generation Library 1 (HGL1) against asexual blood stage Plasmodium falciparum ,using a nano luciferase reporter read-out” (2022).
# The whole screen tested about 150,000 compounds, of which about 540 (0.36%) showed an effect of 50% or more. The list shows a part of the results.
# System: Plasmodium falciparum
# Test: Primary screen in NF54 nanoGlo assay, in single point, at 2uM, 72h; a lower Z score goes with more inhibition
# Format: functional, Erythrocyte
# Settings: timepoint 72 hour
SMILES,% Inhibition [%],Z score
O=C(c1ccc(Cl)o1)N(C[C@H]1CCCO1)c1ccnnc1,2,-0.26
OC[C@H]1CCCN1c1nccc(C(F)(F)F)n1,-10,1.33
O=C(N[C@@H](Cc1ccccc1)C(=O)O)c1cccn1C1CC1,-11,1.58
COCC1(CNS(=O)(=O)c2cn[nH]c2)CCCC1,0,-0.03
CCCN(CC1CC1)C(=O)c1coc2ccccc12,11,-1.05
CC(NCc1nnc(C2CC2)n1C)C(C)n1cccn1 (stereo unspecified),-4,0.44
Clc1cc(Cl)c2oc(N3CC(n4ccnn4)C3)nc2c1,-2,0.23
Cn1nncc1NC(=O)N1CCn2nc(C(F)(F)F)cc2C1,0,0.02
COc1nc2c(cc1CNC(=O)c1ccccc1F)C(=O)N(C1CCCC1)C2,-17,2.14
CN1CCC[C@H](Nc2ccc(Oc3nncc4ccccc34)c(Cl)c2)C1=O,-3,0.37
O=C(COC[C@H]1CCOC1)Nc1ccc(-c2ccccc2)cn1,-9,1.23
Cc1cc(=O)[nH]c2cc(C(=O)NC[C@]3(c4nccn4C)NC(=O)NC3=O)ccc12,-22,2.39
CC(C)(C)Oc1ccncc1NCc1cncs1,-7,1.34
COc1ccccc1CN1CCC(C(=O)N2CCCC2)CC1,-13,1.68
O=C(NC[C@H]1CCN(c2cccc(Cl)c2)C1)c1cnc(-c2cccnc2)nc1,-10,1.62
Cc1ccc(C(=O)NCCc2ncc(C)n2C2CCCC2)cn1,0,-0.05
CC[C@H](C)C(=O)Nc1cc(S(=O)(=O)N2CCCC2)ccn1,-21,2.7
Cc1cc(NCc2ccc(CO)cc2)ccc1-n1nnnc1C(C)C,1,-0.14
Cn1ncc2c(=O)[nH]c(N3CC4(CCCCC4)[C@H]3c3ccccc3)nc21,-2,0.23
C[C@]1(c2ccccc2)CCC(=O)N(Cc2ccno2)C1,-8,1.57
CCOc1cc(N2CCOCC2)c(OCC)cc1NC(=O)c1ccc(Oc2ccccc2)cc1,-9,1.63

SMILES,% Inhibition [%],Z score
Cc1cc(C2(c3ccc(O)c(C)c3)C(=O)N(Cc3cccc4ccccc34)c3ccccc32)ccc1O,0,-0.08
COc1cc(NC(=O)CS(=O)(=O)c2ccc(N3CCCC3=O)cc2)cc(OC)c1OC,1,-0.12
O=C(c1ccc(Br)cc1F)N1CCCc2cc(S(=O)(=O)N3CCCC3)ccc21,-6,0.54
Cc1cc(-n2cnnc2CCn2cccn2)n(C)n1,5,-0.87
CN(C)c1cc(O[C@H]2CCN(C(=O)c3cccc4[nH]ccc34)C2)ncn1,-13,1.73
O=C(Cc1csc(Cc2cccc(Cl)c2)n1)NCc1ccc[nH]1,-1,0.21
COc1cc2cc(CNC[C@@H]3CCCN4CCCC[C@H]34)c(=O)n(CC3CCCCC3)c2cc1OC,-3,0.45
Cc1cccc(OCC(=O)N2CCC[C@H](Oc3nccnc3C#N)C2)c1,-13,2.22
COC(=O)[C@@H](C)NCc1cnn2ccccc12,-11,1.23
CCCc1nn(-c2cccc(Cl)c2)c(N2CCN(C)CC2)c1CN(Cc1ccccc1F)C(C)C,-17,1.54
N#CCCCCS(=O)(=O)c1ccccc1O,-13,1.81
Cc1cnc(C2CN(C(=O)c3cccs3)C2)n1CC1CC1,5,-0.93
COc1cccc(CN2CCC[C@@]3(CCN(Cc4ncccn4)C3)C2=O)c1OC,-10,1.29
Cc1cc(Cl)c(NC(=O)Nc2cnn(CCO)c2)c2cccnc12,9,-1.28
O=C(c1ccoc1)N1CCc2ccccc21,-12,1.29
COc1cccc([C@@H]2CNC(=O)c3nc(-c4cccc(CN(C)C)c4)[nH]c3C2)c1,8,-1.37
C[C@H](O)CN1CCC(CN(C)c2ncccc2C#N)CC1,-6,0.81
COc1ncccc1-c1cnn(CC(=O)Nc2nn(C)c3nc(C)cc(C)c23)c1,-3,0.58
COCCOCCC(=O)NCCCCC1(C)OCCO1,-5,0.7
Nc1ncc(-c2c(-c3ccccc3)ncn2CCc2cccs2)cn1,-13,1.73
CC1CCC(NS(=O)(=O)c2ccc3onc(C(=O)N4CCCCC4)c3c2)CC1 (stereo unspecified),-9,1.43

SMILES,% Inhibition [%],Z score
Cc1cccc(-c2nnc3c4ccccc4nc(N4CCN(C(=O)c5ccc(F)cc5)CC4)n23)c1,9,-1.23
CNC(=O)c1cccc(NC(=O)[C@](C)(NC(C)=O)c2cccc(C(F)(F)F)c2)c1C,-11,1.64
COc1ccc(CON=C(N)CN2CCOCC2)cc1,-3,0.51
O=C(Nc1ccccc1)N(Cc1cc(-c2ccccc2)on1)Cc1ccco1,-10,1.28
O=S(=O)(Cc1ccccc1)N1CC[C@H](N2CCCS2(=O)=O)C1,-13,2.39
CN1CC2(CCC1=O)CCN(C(=O)COC[C@H]1CCCO1)CC2,-3,0.63
CC1(C)COc2c(C(=O)Nc3cccc4c3CCNC4=O)cccc21,-11,1
COc1ccc(C(O)(c2ccc(OC)cc2)c2ccc(CN(Cc3cc(OC)cc(OC)c3)C(C)C)o2)cc1,-1,0.11
Cc1cc(C(=O)NCc2cn3c(n2)C(=O)N(Cc2ccccc2)CC3)n(C)n1,-20,2.59
Cc1n[nH]c(C)c1CCC(=O)N1CC[C@](C)(c2cccc(F)c2)C1,-6,1.11
CCn1cc(CN2CCC(C(=O)NC3CCCCCC3)CC2)c2cc(Cl)ccc21,2,-0.31
CC(C)[C@@]1(O)CN(Cc2ccc(S(C)(=O)=O)cc2)C[C@@H]1C,-11,1.93
COc1cc(C(=O)Nc2cc(C)ccn2)ccc1OCC(=O)N1CCOCC1,-4,0.7
O=C(NCc1ccccc1Cl)c1ccccc1OC[C@H]1CCCO1,-7,1.02
C[C@H](NS(C)(=O)=O)C(=O)N1Cc2cnc(-c3ccccc3)nc2C1,-5,0.86
COc1cc(C(=O)Nc2cccc(-c3nc(C)co3)c2)ccc1OCC(N)=O,-2,0.21
COc1ccccc1C[C@H](NC(C)=O)C(C)C,-5,0.84
O=C(Nc1nnc(C2CC2)s1)c1cc(C2CC2)on1,-9,1.49
CCCN(C(=O)c1cnccn1)C1CC(OCC)C1(C)C (stereo unspecified),-5,0.61
O=C1CC[C@H](CCNCc2cccnc2)N1Cc1ccc(Cl)s1,-1,0.11
Cc1nnc([C@@H]2CC(F)(F)CN2C(=O)c2nccc3ccccc23)o1,8,-1.34

SMILES,% Inhibition [%],Z score
Cc1nnc2c(=O)n(CC(=O)N(C)Cc3ccccc3)c3cccnc3n12,-6,0.76
CCC(COC)NC(=O)C1CCCN(c2nc(C)c3ccc(S(C)(=O)=O)cc3n2)C1 (stereo unspecified),0,0.01
CCCCS(=O)(=O)N(Cc1ccco1)C1CCN(C)CC1,-5,0.49
NS(=O)(=O)c1ccc(CCNC(=O)c2ccc3c(c2)CCCC3)cc1,-9,1.05
CNS(=O)(=O)CC1CCCN1C(C)C(=O)N1CCC(C)CC1 (stereo unspecified),11,-1.18
CCC(CC)N(C)C(=O)NCCc1ccccc1,-3,0.48
COCc1cccc(C(=O)N2CC[C@]3(OC)CC[C@H](O)C[C@H]23)n1,-3,0.53
O=C1CC[C@@]2(CCCN(C(=O)c3ccncc3)C2)CN1CCc1c[nH]cn1,-8,1
CCC1Oc2cc(S(=O)(=O)N3CCCC(C(=O)N4CCCCC4C)C3)c(C)cc2NC1=O (stereo unspecified),-13,1.54
CCc1noc(NC(=O)[C@H]2CCCO2)n1,13,-1.54
Cc1n[nH]c(CN2CCC(C(=O)NCc3ccccc3)CC2)c1Cl,4,-0.8
COc1ccc(NC(=O)C2(N(C(=O)CC3C(c4c(C)[nH]c5ccccc45)C3(C)C)C3CC3)CCN(C)CC2)cc1 (stereo unspecified),-9,1.01
Cc1noc(-c2ccc(NC(=O)c3ccc(C)c(N4CCOCC4)c3)cn2)n1,3,-0.4
Cc1nn(-c2ccccc2)c(NC(=O)C2CCCCC2)c(-c2ccc(Cl)cc2)c1=O,-3,0.35
C#C[C@H](C)OC(=O)c1cccc(Nc2cnccn2)c1,36,-0.71
C[C@H]1CN(Cc2ccccc2)CCN1Cc1ccn[nH]1,-2,0.45
Nc1c2c(-c3cccs3)nc(N3CCN(Cc4ccc(Cl)cc4)CC3)nc2nn1-c1ccccc1,2,-0.47
CCCc1nnc(N[C@H]2CCN(C)C2=O)s1,0,-0.05
O=C1C(=O)N(CN2CCC(CN3C(=O)c4ccccc4C3=O)CC2)c2cc3c(cc21)OCCO3,-9,1.65
O=C1O[C@H](C(=O)Nc2ccc3ccccc3c2)Cc2ccccc21,-19,2.79
